Results as given in PubChem BioAssay AID2147 (National Center for Advancing Translational Sciences (NCATS), 2009).
In all, about 230,000 compounds went through this assay and about 3,600 (1.6%) were called active. The inconclusive results got no clear call from the source; some entries with a clear call stand among them for comparison. Calls follow the shape of the dose curve; as a rule, active = well fitted inhibition curve with a large enough effect (not every such curve was filed as active); inconclusive = small, poorly fitted or top-dose-only effect, or another doubt; inactive = no such curve, though single readings can be large or run the other way. Potencies of inconclusive entries are doubtful fits and often do not repeat.

Target: Lysine-specific demethylase 4E (Homo sapiens) (UniProt B2RXH2)
Experiment: qHTS Assay for Inhibitors of Human Jumonji Domain Containing 2E (JMJD2E)
Details: JMJD2E catalytic domain, FDH-coupled NADH fluorescence (FDH is formaldehyde dehydrogenase); series mostly up to 57.1 µM
Also: nearly all actives have a fitted effect of over 50% in size.
Potency is read from the fitted curve at half-maximal effect; tags tell the direction and shape of the fitted curve.

Sequence of UniProt B2RXH2 (B2RXH2 whole entry, looked up, the tested form may be a part): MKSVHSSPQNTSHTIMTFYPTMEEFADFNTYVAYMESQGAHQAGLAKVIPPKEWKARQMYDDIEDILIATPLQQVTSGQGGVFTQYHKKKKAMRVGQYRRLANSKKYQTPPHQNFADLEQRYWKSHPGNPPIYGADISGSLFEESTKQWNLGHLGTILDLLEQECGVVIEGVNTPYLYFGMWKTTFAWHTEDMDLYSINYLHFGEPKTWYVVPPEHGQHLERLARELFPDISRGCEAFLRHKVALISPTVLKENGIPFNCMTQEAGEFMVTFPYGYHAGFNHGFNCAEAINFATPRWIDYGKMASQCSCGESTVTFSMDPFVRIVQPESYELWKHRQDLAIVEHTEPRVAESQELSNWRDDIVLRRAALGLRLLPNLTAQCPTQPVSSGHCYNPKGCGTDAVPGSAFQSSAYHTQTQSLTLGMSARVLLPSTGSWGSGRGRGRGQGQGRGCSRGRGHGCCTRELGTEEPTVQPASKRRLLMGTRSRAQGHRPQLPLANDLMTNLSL

SMILES	Potency
CCOC(=O)c1[nH]c2c(c1-c1ccc(OC)cc1)C(=O)CC(c1ccc(OC)c(OC)c1)C2 (configuration not stated)	inconclusive: 22.4 µM [inhibitor, partial curve]
CCNC(=O)CC1C(=O)N(c2ccc(C)cc2)C(=O)N1CCc1sccc1C (configuration not stated)	inactive
Cc1cccc(N(C(=O)CCC(=O)Nc2nccs2)C(C(=O)NC(C)(C)C)c2ccc(O)cc2)c1 (configuration not stated)	inactive
Cc1nc(OCC(C)C)c2sc3nc4c(cc3c2n1)COC(C)(C)C4	inconclusive: 7.08 µM [inhibitor, full curve, poor fit]
CC1(C)CN(c2ccc(-c3ccnc4ncnn34)cc2)C1=O	inconclusive: 7.94 µM [inhibitor, partial curve]
COc1ccc2[nH]c(C(=O)NCc3ccc4c(c3)OCO4)cc2c1	inconclusive: 31.6 µM [inhibitor, partial curve]
CCOC(=O)c1ccc(NC(=O)c2nc[nH]c2C(=O)N[C@@H](Cc2ccccc2)C(=O)OC(C)(C)C)cc1	inconclusive: 28.2 µM [inhibitor, single point]
O=C(c1ccc(CNS(=O)(=O)c2cccc(Cl)c2)cc1)N1CCCC1	inactive
COc1ccc(Cn2nnnc2C(c2cc3cc(C)cc(C)c3[nH]c2=O)N2CCOCC2)cc1 (configuration not stated)	inconclusive: 25.1 µM [inhibitor, partial curve]
CN(C)C(=O)CSc1nnc(Cc2ccccc2)n1CC1CCCO1 (configuration not stated)	inactive
CC(C)OC(=O)c1ccc(NC(=O)c2cncc(Br)c2)cc1	inconclusive: 35.5 µM [inhibitor, single point]
C#CCOCCOCCOCCNc1nc(N2CCN(C(=O)[C@H](Cc3cc4ccccc4[nH]3)n3cc(C(N)CC(C)C)nn3)CC2)nc(N2CCN(C(=O)[C@H](CCC(=O)O)n3cc(C(N)[C@H](C)CC)nn3)CC2)n1 (some centres not stated)	inconclusive: 39.8 µM [inhibitor, single point]
COc1ccc(CCNC(=S)N2CCC(C(N)=O)CC2)cc1	inactive
COc1ccc(CC(=O)Nc2ccc(-c3nnc(-c4ccc(C)cc4)o3)cc2)cc1	inconclusive: 11.2 µM [inhibitor, partial curve]
CCOc1nc2c(c(-c3cccs3)c1C#N)Cc1ccccc1-2	inconclusive: 28.2 µM [inhibitor, partial curve]
COc1ccc(CCNC(=O)c2cccs2)cc1OC	inactive
Cc1nc(-c2cn[nH]c2)c2cc(C)oc2n1	inconclusive: 28.2 µM [inhibitor, partial curve]
O=C(Nc1nnc(-c2ccccn2)o1)c1cccc(Cl)c1	inconclusive: 20 µM [inhibitor, partial curve]
CCc1cc(C(=O)c2ccc(OC)cc2)c(NC(=O)CN2CCCC2)s1	inconclusive: 25.1 µM [inhibitor, single point]
CCOC(=O)c1ccccc1NC(=S)N1CCC(C(N)=O)CC1	inconclusive: 28.2 µM [inhibitor, single point]
COc1ccc(-c2cc(CNC(=O)CN(C)Cc3ccccc3)on2)cc1	inactive
O=C1CC(O)(C(F)(F)F)Oc2c1ccc1ccccc21 (configuration not stated)	inconclusive: 31.6 µM [inhibitor, partial curve]
COc1cc(N/N=C(\C)c2ccc(N)cc2)nc(-c2ccccc2)n1	inconclusive: 39.8 µM [inhibitor, single point]
CCN(CC)c1ccc(/C=c2\sc3nc4ccccc4n3c2=O)c(O)c1	inconclusive: 3.16 µM [inhibitor, full curve]

SMILES	Potency
Cc1ccc2[nH]c(=O)c(CN(Cc3cccnc3)Cc3nnnn3CCN3CCOCC3)cc2c1	inconclusive: 35.5 µM [inhibitor, single point]
CCCn1nc(NC(=O)C2CCCO2)c2cc3cc(C)ccc3nc21 (configuration not stated)	inconclusive: 28.2 µM [inhibitor, partial curve]
O=C(N/N=C/c1ccc(N2CCOCC2)o1)c1ccccc1[N+](=O)[O-]	inconclusive: 25.1 µM [inhibitor, single point]
CCOc1cc(C(=O)N(C)Cc2cc3cc(OC)ccc3[nH]c2=O)cc(OCC)c1OCC	inconclusive: 28.2 µM [inhibitor, partial curve]
COCCC(=O)N(Cc1ccc2c(c1)OCO2)C(C(=O)NC1CCCCC1)c1ccncc1 (configuration not stated)	inconclusive: 39.8 µM [inhibitor, single point]
CCC1Oc2ccc(C)cc2N(CC(=O)N(Cc2ccc(C)o2)C2CC(C)(C)NC(C)(C)C2)C1=O (configuration not stated)	inactive
C/C(=N\Nc1ccc([N+](=O)[O-])cc1[N+](=O)[O-])c1cc2c(ccc3ccccc32)oc1=O	inactive
CCn1c(SCC(=O)N2CCCCC2)nc2c(c1=O)SC(C)C2 (configuration not stated)	inactive
COc1ccc(OC)c(-n2cnc3cc(C(=O)NCCCN4CCOCC4)ccc32)c1	inactive
CC(=O)c1c(C)[nH]c(C(=O)COc2cc(C)ccc2C(C)C)c1C	inactive
O=C(O)CCc1nn2c3ccccc3n(CCO)c2nc1=O	inconclusive: 31.6 µM [inhibitor, partial curve]
Cc1cc(C)c2c3c(sc2n1)C1(CCSCC1)C(C#N)=C(N)O3	inconclusive: 35.5 µM [inhibitor, single point]
COc1cccc2c(=O)c(SC(F)(F)C(F)C(F)(F)F)c(C)[nH]c12 (configuration not stated)	inconclusive: 22.4 µM [inhibitor, partial curve]
Oc1ccccc1C=NCCN=Cc1ccccc1O	inconclusive: 31.6 µM [inhibitor, single point]
CN(C)CCN(Cc1cccs1)c1ccccn1	inconclusive: 39.8 µM [inhibitor, single point]
O=C(N/N=C/c1cccnc1)c1cc(-c2cccs2)nc2ccccc12	inconclusive: 31.6 µM [inhibitor, partial curve]
CCCCCCc1cc2cc(C(=O)Nc3cccc(OC)c3)c(=O)oc2cc1O	inconclusive: 1.78 µM [inhibitor, partial curve]
CCOC(=O)c1snc(C(=O)NC2CCCCC2)c1N	inconclusive: 28.2 µM [inhibitor, partial curve]
Cc1nc(-c2ccccc2)sc1C(=O)/C=C/c1ccc(Cl)cc1	inactive
O=S1(=O)N=C(Nc2nncs2)c2ccccc21	inconclusive: 39.8 µM [inhibitor, single point]
O=c1cc(CO)oc(CN2CCN(CCO)CC2)c1O	inconclusive: 28.2 µM [inhibitor, single point]
COc1ccc(Nc2ccccc2C(=O)O)cc1	inactive
CC1=C(C#N)C(=O)NC(=O)/C1=C\c1ccc(-c2cc(C)c(C)cc2[N+](=O)[O-])o1	active: 25.1 µM
CSc1nc2[nH]c3c(c2c2nnnn12)CCCC3	inconclusive: 20 µM [inhibitor, partial curve]

SMILES	Potency
C/C(CCC(=O)O)=N/Nc1ccc([N+](=O)[O-])cc1[N+](=O)[O-]	inactive
NC(=O)c1c(NC(=O)C2COc3ccccc3O2)sc2c1CCN(Cc1ccccc1)C2 (configuration not stated)	inconclusive: 28.2 µM [inhibitor, partial curve]
N#Cc1ccc(N2CCN(c3ccc(F)cc3)CC2)cc1	inconclusive: 31.6 µM [inhibitor, single point]
CC(=O)O[C@H]1C[C@H]2CC[C@@H]3[C@@H](CC[C@]4(C)[C@H](OC(C)=O)[C@H]([N+]5(C)CCCCC5)C[C@@H]34)[C@]2(C)C[C@H]1[N+]1(C)CCCCC1	inactive
Cc1cc(C)c(C#N)c(SCC(=O)NC(C)(C)C)n1	inactive
Nc1c(Cl)ncnc1N/N=C/c1ccnc2ccccc12	inactive
CCOC(=O)c1cc(C#N)c(SC)nc1-c1ccccc1	inconclusive: 39.8 µM [inhibitor, single point]
CCc1c(C)[nH]c2nc3ccccc3n2c1=O	inconclusive: 35.5 µM [inhibitor, partial curve]
S=C(Nc1ccccn1)c1ccccn1	active: 12.6 µM
Nc1cc(N2CCCC2)ccc1[N+](=O)[O-]	inactive
Cn1c(N)c(C(=O)c2ccc(C#N)cc2)c(=O)n(C)c1=O	inactive
COc1cccc(Nc2ncccc2C(=O)NCc2ccccc2)c1	inactive
COc1cccc(-n2cc(C(=O)O)c3ccccc3c2=O)c1	inconclusive: 25.1 µM [inhibitor, partial curve]
O=C(CCCCCn1c(=S)[nH]c2ccccc2c1=O)N1CCOCC1	inactive
Cc1ccc(-c2nn(CC(C)(C)C)c3ncnc(N)c23)cc1	inconclusive: 28.2 µM [inhibitor, partial curve]
CCCC[n+]1ccn(-c2nc3ccccc3nc2[N-]S(=O)(=O)c2ccccc2)c1	inconclusive: 31.6 µM [inhibitor, partial curve]
CCOC(=O)N1CCC(NC(=O)c2ccc3nc4ccccc4c(=O)n3c2)CC1	inconclusive: 3.16 µM [inhibitor, full curve]
O=C(c1cccs1)N1CCC(c2nc3c(nnn3Cc3ccccc3)c(=O)[nH]2)CC1	inactive
CN(C)c1ccc(C=C2C(=O)OC(C)(C(C)(C)C)OC2=O)cc1 (configuration not stated)	inactive
CCn1nnnc1SCC(=O)Nc1nc2ccc(OC)cc2s1	inactive
CCCC(=O)Nc1sc(Cc2ccccc2)c(C)c1C(N)=O	inactive
Cc1ccc(C2=NN(C(=O)CSc3nc4ncc(Cl)cc4[nH]3)C(c3ccco3)C2)cc1 (configuration not stated)	inactive
COc1cc2c(cc1OC)C(c1cc3ccccc3oc1=O)=NC(C)(C)C2	inconclusive: 2.24 µM [inhibitor, partial curve, poor fit]
CCOC(=O)N1CCN(Cc2nc3c(c(=O)[nH]c(=O)n3C)n2Cc2ccccc2C)CC1	inactive
